# Source: PubChem BioAssay AID504332 (National Center for Advancing Translational Sciences (NCATS), 2011)
# The whole screen tested about 350,000 compounds, of which about 31,000 (8.9%) were called active. The shares of active, inactive and inconclusive entries below differ from those in the screen. Calls follow the shape of the dose curve; as a rule, active = well fitted inhibition curve with a large enough effect; inconclusive = small, poorly fitted or top-dose-only effect; inactive = no such curve, though single readings can be large or run the other way. Where the call is inconclusive, the potency comes from a doubtful curve fit.
# Target: Histone-lysine N-methyltransferase EHMT2 (Homo sapiens) (UniProt Q96KQ7)
# Assay: qHTS Assay for Inhibitors of Histone Lysine Methyltransferase G9a; also: nearly all actives have a fitted effect of over 75% in size
# Conditions: G9a H3K9 monomethylation, AlphaScreen, 2 h; activity, negative = inhibition: at 59 µM (top of the series) unless noted
# Method in brief: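 Enzyme 20 nM + cpd, 15 min RT; add b-H3K9 pep 500 nM / SAM 20 uM; 2 h RT; anti-H3K9me1 Ab 0.5 ug/mL + SA donor / anti-rabbit acceptor beads 20 ug/mL each, 10 min; AlphaScreen read.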
# % is scaled to controls: 0 for no effect and ±100 for the full control effect; potency is read from the fitted curve at half-maximal effect; tags tell the direction and shape of the fitted curve.
# UniProt Q96KQ7, sequence (Q96KQ7 whole entry, looked up): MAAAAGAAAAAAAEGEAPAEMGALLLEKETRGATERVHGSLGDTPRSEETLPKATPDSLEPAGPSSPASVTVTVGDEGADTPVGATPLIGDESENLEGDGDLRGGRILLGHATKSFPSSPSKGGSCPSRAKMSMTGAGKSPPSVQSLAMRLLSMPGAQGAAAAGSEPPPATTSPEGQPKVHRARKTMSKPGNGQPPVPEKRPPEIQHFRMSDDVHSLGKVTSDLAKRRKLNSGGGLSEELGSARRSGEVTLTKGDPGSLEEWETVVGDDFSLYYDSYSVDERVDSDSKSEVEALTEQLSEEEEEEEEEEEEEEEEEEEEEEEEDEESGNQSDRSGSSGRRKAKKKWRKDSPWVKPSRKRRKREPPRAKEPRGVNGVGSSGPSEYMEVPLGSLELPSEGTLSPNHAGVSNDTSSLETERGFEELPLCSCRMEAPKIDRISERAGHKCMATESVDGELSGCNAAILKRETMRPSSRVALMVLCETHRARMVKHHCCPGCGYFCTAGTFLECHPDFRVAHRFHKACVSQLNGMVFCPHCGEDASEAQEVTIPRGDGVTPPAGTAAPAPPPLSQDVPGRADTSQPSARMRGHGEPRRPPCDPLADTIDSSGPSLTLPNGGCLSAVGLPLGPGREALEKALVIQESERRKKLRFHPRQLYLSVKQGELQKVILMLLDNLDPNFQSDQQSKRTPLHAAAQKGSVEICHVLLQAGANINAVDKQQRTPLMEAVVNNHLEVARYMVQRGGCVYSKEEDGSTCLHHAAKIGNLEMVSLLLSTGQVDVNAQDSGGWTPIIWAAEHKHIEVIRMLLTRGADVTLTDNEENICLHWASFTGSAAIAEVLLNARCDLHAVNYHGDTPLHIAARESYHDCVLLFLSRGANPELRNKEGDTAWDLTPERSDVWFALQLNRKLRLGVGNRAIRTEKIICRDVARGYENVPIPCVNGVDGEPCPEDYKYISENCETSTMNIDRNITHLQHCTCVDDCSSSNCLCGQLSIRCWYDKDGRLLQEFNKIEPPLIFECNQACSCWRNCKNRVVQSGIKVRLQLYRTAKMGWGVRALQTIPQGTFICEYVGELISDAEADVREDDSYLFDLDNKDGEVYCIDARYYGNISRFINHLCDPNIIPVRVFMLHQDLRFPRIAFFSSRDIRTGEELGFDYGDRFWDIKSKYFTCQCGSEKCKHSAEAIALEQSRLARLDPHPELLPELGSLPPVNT
Structure (SMILES),Potency,"activity, negative = inhibition"
Cc1ccc(OCC(=O)NC(=S)Nc2cccc(NC(=O)c3ccccc3)c2)cc1,"inconclusive: 28.2 µM [inhibitor, single point]",
O=C(Oc1ccc(-n2cnnn2)cc1)c1ccco1,"inconclusive: 79.4 µM [inhibitor, single point]",
Cc1ccc(Cl)cc1N1CCN(C(=O)C2CCCN(Cc3nc(-c4cccc(Cl)c4)oc3C)C2)CC1 (configuration not stated),"inconclusive: 7.94 µM [inhibitor, partial curve, poor fit]",
CC(C)NCc1cccc([N+](=O)[O-])c1,active: 2.51 µM,
Cc1ccc(C)c(S(=O)(=O)N2CCCOC2CNC(=O)C(=O)NCc2cccs2)c1 (configuration not stated),"inconclusive: 2.51 µM [inhibitor, full curve]",
COc1cccc(NC(=O)CCN2CCN(CCO)CC2)c1,"inconclusive: 39.8 µM [inhibitor, single point]",
CCc1nnc(NS(=O)(=O)c2ccc(NC(=O)c3ccccc3C)cc2)s1,,inactive: -48.7% [at 102 µM]
Nc1ccc(-c2c3ccc(=O)cc-3oc3cc(O)ccc23)c(C(=O)O)c1,"inconclusive: 1.12 µM [inhibitor, full curve, poor fit]",
Cc1ccc(-c2cc3nc(C)cc(NCc4ccco4)n3n2)cc1,"inconclusive: 79.4 µM [inhibitor, single point]",
Cc1cc2nc(-c3ccc(SCc4ccccc4C#N)nc3)[nH]c2cc1C,"inconclusive: 22.4 µM [inhibitor, single point]",
O=C1C(NS(=O)(=O)c2ccc(Cl)cc2)=C(N2CCCCC2)C(=O)c2ccccc21,active: 10 µM,
CCS(=O)(=O)N1CCN(c2ccc(C(=O)NC34CC5CC(CC(C5)C3)C4)cc2[N+](=O)[O-])CC1,,inactive: -8.01% [at 102 µM]
CCCCNC(=O)c1ccc2c(c1)NC(=O)C(CS(=O)(=O)Cc1ccc(F)cc1Cl)N2 (configuration not stated),"inconclusive: 17.8 µM [inhibitor, partial curve, poor fit]",
CC(C)c1ccc2[nH]c3nc(SCC(=O)NC4CC4)nnc3c2c1,,inactive: 22%
O=C(COC(=O)c1ccccn1)NC(=O)c1ccccc1,"inconclusive: 8.91 µM [inhibitor, single point]",
O=C(NCc1ccco1)c1ccc2c(c1)N(Cc1ccccc1F)C(=O)c1ccccc1S2(=O)=O,"inconclusive: 22.4 µM [inhibitor, partial curve, poor fit]",
CCN(CC(=O)NC(C)(C)C)Cc1cc(=O)n2c(-c3ccccc3)csc2n1,,inactive: -22.3% [at 102 µM]
O=C(O)C1CC=CCC1C(=O)Nc1ccc(N2CCN(Cc3ccccc3)CC2)cc1 (configuration not stated),"inconclusive: 25.1 µM [inhibitor, single point]",
O=C(Nc1cccc2ccccc12)N1CC=C(c2ccccc2)CC1,active: 44.7 µM,
CC(=O)Nc1ccc(S(=O)(=O)N(Cc2ccccc2)Cc2ccccc2)cc1,,inactive: -1.61%
O=C(CN1C(=O)NC2(CCOc3ccccc32)C1=O)c1ccc(Br)cc1 (configuration not stated),"inconclusive: 50.1 µM [inhibitor, partial curve, poor fit]",
CCOC(=O)C1(Cc2cccc(Cl)c2)CCCN(C(=O)c2occc2C)C1 (configuration not stated),,inactive: -2.68% [at 0.501 µM]
CC(=O)N1CCN(c2ccccc2NC(=O)c2ccc(-c3cccc([N+](=O)[O-])c3)o2)CC1,"inconclusive: 50.1 µM [inhibitor, partial curve, poor fit]",
COCCNc1ccc(-c2nc(-c3ccccn3)no2)cc1[N+](=O)[O-],,inactive: -2.87%

Structure (SMILES),Potency,"activity, negative = inhibition"
CCOC(=O)COc1nc(-c2ccc(C)cc2)cc(-c2ccco2)c1C#N,,inactive: 15%
CC(=O)N=Nc1[nH]c(N)c2ccccc12,"inconclusive: 89.1 µM [inhibitor, single point]",
O=C(N/N=C/c1ccc(O)cc1O)c1ccc(CN2C(=O)c3cccc4cccc2c34)cc1,active: 79.4 µM,
Nc1cc(C(=O)c2ccccc2)ccc1[N+](=O)[O-],,inactive: -34% [at 102 µM]
Nc1ccc2oc(Cc3ccc(Cl)cc3)nc2c1,active: 12.6 µM,
O=[N+]([O-])C1=CC=C2C(=NC3(CCCCC3)N2O)C1=NCCc1ccccc1,active: 7.08 µM,
Cc1ccccc1NC1c2ccccc2C(=O)N1Cc1ccco1 (configuration not stated),active: 44.7 µM,
CCCC(=O)Nc1cc(C(=O)O)ccc1S(=O)(=O)c1ccc(Cl)cc1,"inconclusive: 100 µM [inhibitor, single point]",
CC(C)CCNC(=O)c1ccc2c(c1)nc1n2CCCCC1,,inactive: -13.6%
NS(=O)(=O)c1ccc(NCCCn2ccnc2)c([N+](=O)[O-])c1,,inactive: 14.3% [at 102 µM]
COc1cccc(CNc2ccc3[nH]c(=O)[nH]c3c2)c1OCc1ccc(F)cc1,"inconclusive: 25.1 µM [inhibitor, single point]",
Cc1cccc(-n2cnc3cc(C(=O)NC4CCCCCC4)ccc32)c1,"inconclusive: 31.6 µM [inhibitor, partial curve, poor fit]",
O=C(O)CSCC(=O)N1N=C2/C(=C/c3ccccc3)CCCC2C1c1ccccc1 (configuration not stated),active: 50.1 µM,
Cc1ncoc1C(=O)N1CCc2c([nH]c3ccccc23)C1C(C)(C)C (configuration not stated),"inconclusive: 89.1 µM [inhibitor, partial curve, poor fit]",
CCOC(=O)C1=C(O)C(=O)N(Cc2cccnc2)C1c1ccc(C)cc1 (configuration not stated),,inactive: 36.3% [at 12.7 µM]
O=C(c1ccc2c(=O)n(Cc3ccco3)c(=S)[nH]c2c1)N1CCN(Cc2ccccc2)CC1,,inactive: -4.04%
NC(=O)NC(=O)c1nccnc1C(=O)O,,inactive: 26.3% [at 0.501 µM]
O=C(CCNC(=O)c1ccc([N+](=O)[O-])cc1)NNC(=O)c1ccncc1,"inconclusive: 12.6 µM [inhibitor, partial curve, poor fit]",
NC(=O)CC(NC(=O)Cc1cccc2ccccc12)c1ccc(N2CCN(c3ccccn3)CC2)c([N+](=O)[O-])c1 (configuration not stated),"inconclusive: 56.2 µM [inhibitor, partial curve, poor fit]",
CSCc1c(C(=O)Nc2ccc(N3CCOCC3)cc2)oc2ccccc12,"inconclusive: 79.4 µM [inhibitor, single point]",
CCOC(=O)C(=O)Nc1ccc(OC)c(Cl)c1,"inconclusive: 70.8 µM [inhibitor, partial curve, poor fit]",
COc1ccc(N2CCN(Cc3nc(N)nc(N4CCCc5ccccc54)n3)CC2)cc1,active: 44.7 µM,
Cc1ccc(C)c(SCC(=O)NNC(=O)c2ccccc2)c1,active: 44.7 µM,
Cc1cc(/C=N/NC(=O)CC2(C)OCCO2)c(C)n1-c1ccc(Cl)c(Cl)c1,"inconclusive: 28.2 µM [inhibitor, single point]",

Structure (SMILES),Potency,"activity, negative = inhibition"
CCOc1c(Cl)cc(CNCC(O)c2ccccc2)cc1OC (configuration not stated),"inconclusive: 89.1 µM [inhibitor, partial curve, poor fit]",
Nc1c(C(=O)Nc2ccccc2)sc2nc(-c3ccco3)ccc12,active: 11.2 µM,
COc1ccc(C(=O)N/C(=C/c2cccc3ccccc23)C(=O)NCCc2c[nH]c3ccccc23)cc1OC,"inconclusive: 89.1 µM [inhibitor, single point]",
CC(C)(C)C(=O)CN1CCN(S(=O)(=O)c2ccc(F)cc2)CC1,"inconclusive: 50.1 µM [inhibitor, partial curve, poor fit]",
Cc1nccn1CC(=O)N/N=C/c1ccc(O)c(O)c1,active: 7.08 µM,
N#Cc1c(-c2ccco2)cc(C2CC2)nc1SCC(=O)c1ccccc1,"inconclusive: 50.1 µM [inhibitor, partial curve]",
O=C(Cn1c(=O)oc2ccccc21)Nc1ccc(S(=O)(=O)N2CCCCC2)cc1,,inactive: 0.242% [at 12.7 µM]
Cc1oc2c(cc(NS(=O)(=O)c3ccc(F)cc3)c3ccccc32)c1C(=O)OCc1ccccc1,"inconclusive: 1.26 µM [inhibitor, full curve, poor fit]",
CCN(CC)c1ccc2nc3c4ccccc4c(=O)cc-3oc2c1,"inconclusive: 5.01 µM [inhibitor, full curve]",
O=C(Nc1ccc(Oc2ccccc2)cc1)N[C@@H](Cc1ccccc1)C(=O)O,"inconclusive: 79.4 µM [inhibitor, single point]",
COc1ccc(N2CCN(Cc3cc4c(cc3O)CCC4)CC2)cc1,"inconclusive: 7.08 µM [inhibitor, single point]",
COc1ccc(S(=O)(=O)C(C#N)c2nc3ccccc3nc2N2CCCCC2)cc1 (configuration not stated),active: 12.6 µM,
FC(F)(F)c1nc(Sc2ncccc2C(F)(F)F)n[nH]1,"inconclusive: 25.1 µM [inhibitor, partial curve, poor fit]",
CCCOC(=O)c1ccc(Nc2c(C(=O)OCC)cnc3c(C)cc(Cl)cc23)cc1,,inactive: 79.5%
CC(C)OCCCNC(=O)c1nn(C)c2c1CSc1ccccc1-2,,inactive: -42.6%
CC(Oc1ccccc1)c1ccnn1S(C)(=O)=O (configuration not stated),"inconclusive: 8.91 µM [inhibitor, partial curve, poor fit]",
CC12CC3CC(C)(C1)CC(C(=O)Nc1nn[nH]n1)(C3)C2,active: 35.5 µM,
CCNc1nc(CN2CCOCC2)nc2sc3c(c12)CCC3,,inactive: -3.18%
N/C(=N\OC(=O)Oc1ccccc1)c1ccc(Cl)cc1,"inconclusive: 89.1 µM [inhibitor, single point]",
O=C(C1CC1)N1CCN(c2ccc(O)cc2)CC1,active: 25.1 µM,
O=C(COC(=O)c1ccc([N+](=O)[O-])s1)Nc1ccccc1,,inactive: -4.61%
Clc1ncnc2scc(-c3ccc(Br)cc3)c12,,inactive: 6.47%
Cc1cc(C)c(OCC(=O)N/N=C/c2ccco2)c(C)c1,,inactive: 16.5%
COC(=O)c1cc2sc(C)cc2n1CC(=O)Nc1ccc(C)cc1Cl,,inactive: 9.54%
